From the BET-seq Pho4 binding data (Le et al. 2018)
The other results are listed elsewhere or left out. The energies were worked out here from pooled read counts, against the library average; single values are noisy.

Each sequence was assayed against T1, Pho4 (S. cerevisiae) (UniProt P07270) (assay: relative binding free energy (BET-seq); higher = weaker binding). Conditions: reference: library average.
T1 sequence: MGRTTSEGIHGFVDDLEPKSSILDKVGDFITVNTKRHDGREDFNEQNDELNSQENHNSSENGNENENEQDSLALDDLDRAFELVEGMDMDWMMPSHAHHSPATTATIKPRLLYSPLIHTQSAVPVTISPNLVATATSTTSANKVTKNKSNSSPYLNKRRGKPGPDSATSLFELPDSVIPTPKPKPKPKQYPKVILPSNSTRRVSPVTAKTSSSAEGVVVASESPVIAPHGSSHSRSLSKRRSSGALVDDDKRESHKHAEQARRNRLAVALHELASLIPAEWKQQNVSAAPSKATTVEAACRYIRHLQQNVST
In the case of GGATGCACGTGTATTT, the “relative binding free energy” value is reported as 0.1 kcal/mol.
AGGCACACGTGGTAGG was tested, and the “relative binding free energy” value was 0 kcal/mol.
ATGGCCACGTGATTAG was tested, and the “relative binding free energy” value was 0.1 kcal/mol.
With ACTGTCACGTGAAGGT the “relative binding free energy” value was 0.23 kcal/mol.
With ATGTTCACGTGGCTTA the “relative binding free energy” value was 0.01 kcal/mol.
GATAGCACGTGAGATT was tested, and the “relative binding free energy” value was 0.24 kcal/mol.
CGTAACACGTGATAGT was tested, and the “relative binding free energy” value was 0.2 kcal/mol.
With GGAAACACGTGAGTTT the “relative binding free energy” value was 0.4 kcal/mol.
With AAATTCACGTGAGCGT the “relative binding free energy” value was 0.34 kcal/mol.
For AGGAGCACGTGATGGT, the “relative binding free energy” value was 0 kcal/mol.
For CTTGGCACGTGAGAGG, the “relative binding free energy” value was 0.02 kcal/mol.
With TTACGCACGTGAGTGT the “relative binding free energy” value was -0.01 kcal/mol.
CTCGGCACGTGTGTTG was tested, and the “relative binding free energy” value was -0.03 kcal/mol.
With ATCATCACGTGTTGGG the “relative binding free energy” value was 0.21 kcal/mol.
In the case of GAGGGCACGTGTGGTG, the “relative binding free energy” value is reported as -0.02 kcal/mol.
In the case of CTTGGCACGTGGTATT, the “relative binding free energy” value is reported as -0.2 kcal/mol.
With ATCTTCACGTGGTGGA the “relative binding free energy” value was 0.18 kcal/mol.
In the case of ATTACCACGTGGTTTG, the “relative binding free energy” value is reported as -0.03 kcal/mol.
For TTCTGCACGTGATGTG, the “relative binding free energy” value was -0.01 kcal/mol.
AGGGCCACGTGATGCG was tested, and the “relative binding free energy” value was 0.15 kcal/mol.
In the case of TTTGTCACGTGACAAT, the “relative binding free energy” value is reported as 0.11 kcal/mol.
CTCGGCACGTGAGGTG was tested, and the “relative binding free energy” value was 0.12 kcal/mol.
With TATCGCACGTGCTTTG the “relative binding free energy” value was -0.05 kcal/mol.
For GATTTCACGTGTGGGG, the “relative binding free energy” value was 0.32 kcal/mol.
In the case of GGTTTCACGTGAAATG, the “relative binding free energy” value is reported as 0.4 kcal/mol.
In the case of AGCGGCACGTGGGTAT, the “relative binding free energy” value is reported as -0.25 kcal/mol.
For CGGCGCACGTGTGTTG, the “relative binding free energy” value was -0.01 kcal/mol.
For AAGTTCACGTGTAGGC, the “relative binding free energy” value was 0.4 kcal/mol.
With ATGGACACGTGCGTTA the “relative binding free energy” value was -0.09 kcal/mol.
For TGGGACACGTGGGTAT, the “relative binding free energy” value was -0.14 kcal/mol.
In the case of GGTCGCACGTGGGAGG, the “relative binding free energy” value is reported as -0.11 kcal/mol.
In the case of TGTTTCACGTGTATTC, the “relative binding free energy” value is reported as 0.09 kcal/mol.
With TTTCACACGTGTTTCT the “relative binding free energy” value was 0.18 kcal/mol.
With AACTTCACGTGAGTGT the “relative binding free energy” value was 0.39 kcal/mol.
With TTTGCCACGTGGAAGT the “relative binding free energy” value was -0.01 kcal/mol.
TAGGCCACGTGGTGGG was tested, and the “relative binding free energy” value was -0.14 kcal/mol.
For GAAGACACGTGAGTGG, the “relative binding free energy” value was 0.26 kcal/mol.
For TGGAGCACGTGTTCGT, the “relative binding free energy” value was -0.06 kcal/mol.
With AGTGCCACGTGGGACT the “relative binding free energy” value was -0.04 kcal/mol.
For GGATCCACGTGGGCTT, the “relative binding free energy” value was 0.15 kcal/mol.
In the case of AACGGCACGTGTGGTG, the “relative binding free energy” value is reported as 0.03 kcal/mol.
In the case of GGCCTCACGTGGGGAT, the “relative binding free energy” value is reported as 0.11 kcal/mol.
AGCTACACGTGTTGTT was tested, and the “relative binding free energy” value was 0.18 kcal/mol.
For CGAGGCACGTGTTTTT, the “relative binding free energy” value was -0.08 kcal/mol.
With TGTGTCACGTGTTCAG the “relative binding free energy” value was 0.02 kcal/mol.
With TTCATCACGTGGAAGT the “relative binding free energy” value was 0.25 kcal/mol.
TAGGTCACGTGGAAGT was tested, and the “relative binding free energy” value was 0.2 kcal/mol.
For AGTGTCACGTGACACG, the “relative binding free energy” value was 0.29 kcal/mol.
For TTAGTCACGTGGTGAC, the “relative binding free energy” value was 0.08 kcal/mol.
With GTTGACACGTGCGTCG the “relative binding free energy” value was 0.04 kcal/mol.
For GGTTTCACGTGGGAGG, the “relative binding free energy” value was 0.33 kcal/mol.
With AGGGGCACGTGGTCCT the “relative binding free energy” value was -0.28 kcal/mol.
For TTTTTCACGTGAGCGG, the “relative binding free energy” value was 0.32 kcal/mol.
For TATAACACGTGATTGG, the “relative binding free energy” value was 0.16 kcal/mol.
AAAATCACGTGGTATA was tested, and the “relative binding free energy” value was 0.13 kcal/mol.
GGTTTCACGTGGTCGT was tested, and the “relative binding free energy” value was 0.27 kcal/mol.
For TATAACACGTGATTTA, the “relative binding free energy” value was 0.01 kcal/mol.
In the case of GGGTCCACGTGGGTGT, the “relative binding free energy” value is reported as -0.07 kcal/mol.
In the case of GAGTACACGTGGGGGG, the “relative binding free energy” value is reported as -0.01 kcal/mol.
In the case of TTAAGCACGTGACGTG, the “relative binding free energy” value is reported as -0.02 kcal/mol.
TGATGCACGTGCTGTC was tested, and the “relative binding free energy” value was -0.02 kcal/mol.
In the case of CGTAGCACGTGGTCGG, the “relative binding free energy” value is reported as -0.15 kcal/mol.
In the case of ATAGTCACGTGCTGAG, the “relative binding free energy” value is reported as 0.12 kcal/mol.
AGAAGCACGTGTGGGT was tested, and the “relative binding free energy” value was 0.06 kcal/mol.
CTATGCACGTGTGAAG was tested, and the “relative binding free energy” value was 0.06 kcal/mol.
In the case of TCTTTCACGTGTCGTT, the “relative binding free energy” value is reported as 0.11 kcal/mol.
In the case of TGTGGCACGTGATACT, the “relative binding free energy” value is reported as -0.03 kcal/mol.
GGTTTCACGTGGCAGA was tested, and the “relative binding free energy” value was 0.16 kcal/mol.
With GGTGTCACGTGGTTAT the “relative binding free energy” value was 0.23 kcal/mol.
In the case of GCGTGCACGTGAAGGG, the “relative binding free energy” value is reported as 0.22 kcal/mol.
In the case of GGGCCCACGTGGCTGG, the “relative binding free energy” value is reported as -0.11 kcal/mol.
With TTGTACACGTGGGCTA the “relative binding free energy” value was -0.11 kcal/mol.
TCGAGCACGTGGAGTG was tested, and the “relative binding free energy” value was -0.08 kcal/mol.
For ATAGCCACGTGATGTG, the “relative binding free energy” value was -0.04 kcal/mol.
With AGTGGCACGTGCTAGT the “relative binding free energy” value was -0.28 kcal/mol.
With TTGGTCACGTGGCGCG the “relative binding free energy” value was 0.01 kcal/mol.
In the case of TTGTCCACGTGATGTT, the “relative binding free energy” value is reported as 0.24 kcal/mol.
With TACTTCACGTGGTGAT the “relative binding free energy” value was 0.29 kcal/mol.
In the case of AATTTCACGTGAGGTC, the “relative binding free energy” value is reported as 0.38 kcal/mol.
In the case of TTTCGCACGTGTAGAT, the “relative binding free energy” value is reported as 0.21 kcal/mol.
With GGGGGCACGTGATACG the “relative binding free energy” value was 0.06 kcal/mol.
In the case of TGGCCCACGTGGGGTG, the “relative binding free energy” value is reported as -0.13 kcal/mol.
GCTGACACGTGAGGTG was tested, and the “relative binding free energy” value was 0.28 kcal/mol.
TGAGTCACGTGGGTTT was tested, and the “relative binding free energy” value was 0 kcal/mol.
In the case of GCTTTCACGTGTGAGG, the “relative binding free energy” value is reported as 0.37 kcal/mol.
With TGGCACACGTGGGAGT the “relative binding free energy” value was -0.15 kcal/mol.
For CGAGGCACGTGAGTAT, the “relative binding free energy” value was 0.03 kcal/mol.
For ACGGTCACGTGAATGG, the “relative binding free energy” value was 0.33 kcal/mol.
In the case of AGGGACACGTGGTAAG, the “relative binding free energy” value is reported as 0 kcal/mol.
For TATTTCACGTGGCTGG, the “relative binding free energy” value was 0.25 kcal/mol.
For CATAACACGTGGTGGT, the “relative binding free energy” value was -0.17 kcal/mol.
In the case of ATCTTCACGTGGCTGT, the “relative binding free energy” value is reported as 0.2 kcal/mol.
For TAAAGCACGTGTAGGT, the “relative binding free energy” value was -0.11 kcal/mol.
With CTATGCACGTGAGGGG the “relative binding free energy” value was 0.15 kcal/mol.
For TTGTGCACGTGGTCTT, the “relative binding free energy” value was -0.07 kcal/mol.
GGCTTCACGTGTGTTG was tested, and the “relative binding free energy” value was 0.37 kcal/mol.
With GGTTTCACGTGTCAGT the “relative binding free energy” value was 0.35 kcal/mol.
In the case of GGGTTCACGTGTGCCT, the “relative binding free energy” value is reported as 0.15 kcal/mol.
ATTACCACGTGATTTT was tested, and the “relative binding free energy” value was 0.1 kcal/mol.
With TTTAACACGTGGGAAC the “relative binding free energy” value was 0.19 kcal/mol.
TCACTCACGTGGTGGG was tested, and the “relative binding free energy” value was 0.22 kcal/mol.
For CGGCTCACGTGTGCGT, the “relative binding free energy” value was 0.27 kcal/mol.
With GAGGTCACGTGTCTTG the “relative binding free energy” value was 0.13 kcal/mol.
ATTTGCACGTGTTTTT was tested, and the “relative binding free energy” value was 0.03 kcal/mol.
TATTGCACGTGTATGA was tested, and the “relative binding free energy” value was -0.05 kcal/mol.
With TATCTCACGTGTGTAG the “relative binding free energy” value was 0.36 kcal/mol.
With GGGGTCACGTGAAAGG the “relative binding free energy” value was 0.28 kcal/mol.
In the case of GTTGGCACGTGCGTGG, the “relative binding free energy” value is reported as -0.18 kcal/mol.
For AGGGGCACGTGTCGAT, the “relative binding free energy” value was -0.07 kcal/mol.
In the case of AGAGGCACGTGGGCTT, the “relative binding free energy” value is reported as -0.12 kcal/mol.
With TATATCACGTGGCTTG the “relative binding free energy” value was -0.03 kcal/mol.
AGTGGCACGTGCTGAA was tested, and the “relative binding free energy” value was -0.15 kcal/mol.
In the case of CGGAGCACGTGGGTCT, the “relative binding free energy” value is reported as -0.2 kcal/mol.
For AGGTGCACGTGTCTAT, the “relative binding free energy” value was 0 kcal/mol.
In the case of AAATGCACGTGGGGCA, the “relative binding free energy” value is reported as -0.12 kcal/mol.
